From the supplement of paper PMC11316812
± gives the standard deviation of the averaged measurements.

Tests used:
[1] = test system: hTERT-HMEC; assay: percentage of EdU-negative (G0-arrested) nuclei per well, 72 h; higher = more G0 arrest; conditions: reference: sequence is the full UniProt precursor, the tested protein was the secreted form or ectodomain
[2] = test system: MCF7; assay: as above; conditions: reference: sequence is the full UniProt precursor, the tested protein was the secreted form or ectodomain
[3] = protein concentration 0.0225 µM
[4] = protein concentration 0.00685714 µM
[5] = protein concentration 0.0685714 µM
[6] = protein concentration 0.01875 µM
[7] = protein concentration 0.1875 µM
[8] = protein concentration 0.0297143 µM
[9] = protein concentration 0.297143 µM
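Further: secreted proteins added to cultured cells, EdU pulse at the end, nuclei found by Hoechst imaging, EdU status from nuclear versus surrounding ring intensity ratio, PBS as neutral control.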

| Sequence | percentage of EdU-negative [1, 3] | percentage of EdU-negative ([1]; protein concentration 0.225 µM) | percentage of EdU-negative [2, 3] | percentage of EdU-negative ([2]; protein concentration 0.225 µM) | further results |
| --- | --- | --- | --- | --- | --- |
| MAGPRACAPLLLLLLLGELLAAAGAQRVGLPGPPGPPGPPGKPGQDGIDGEAGPPGLPGPPGPKGAPGKPGKPGEAGLPGLPGVDGLTGRDGPPGPKGAPGERGSLGPPGPPGLGGKGLPGPPGEAGVSGPPGGIGLRGPPGPSGLPGLPGPPGPPGPPGHPGVLPEGATDLQCPSICPPGPPGPPGMPGFKGPTGYKGEQGEVGKDGEKGDPGPPGPAGLPGSVGLQGPRGLRGLPGPLGPPGDRGPIGFRGPPGIPGAPGKAGDRGERGPEGFRGPKGDLGRPGPKGTPGVAGPSGEPGMPGKDGQNGVPGLDGQKGEAGRNGAPGEKGPNGLPGLPGRAGSKGEKGERGRAGELGEAGPSGEPGVPGDAGMPGERGEAGHRGSAGALGPQGPPGAPGVRGFQGQKGSMGDPGLPGPQGLRGDVGDRGPGGAAGPKGDQGIAGSDGLPGDKGELGPSGLVGPKGESGSRGELGPKGTQGPNGTSGVQGVPGPPGPLGLQGVPGVPGITGKPGVPGKEASEQRIRELCGGMISEQIAQLAAHLRKPLAPGSIGRPGPAGPPGPPGPPGSIGHPGARGPPGYRGPTGELGDPGPRGNQGDRGDKGAAGAGLDGPEGDQGPQGPQGVPGTSKDGQDGAPGEPGPPGDPGLPGAIGAQGTPGICDTSACQGAVLGGVGEKSGSRSS | 4.85 ± 0.34% | 5.07 ± 0.74% | 25 ± 1.2% | 25.36 ± 0.048% | – |
| MAHYITFLCMVLVLLLQNSVLAEDGEVRSSCRTAPTDLVFILDGSYSVGPENFEIVKKWLVNITKNFDIGPKFIQVGVVQYSDYPVLEIPLGSYDSGEHLTAAVESILYLGGNTKTGKAIQFALDYLFAKSSRFLTKIAVVLTDGKSQDDVKDAAQAARDSKITLFAIGVGSETEDAELRAIANKPSSTYVFYVEDYIAISKIREVMKQKLCEESVCPTRIPVAARDERGFDILLGLDVNKKVKKRIQLSPKKIKGYEVTSKVDLSELTSNVFPEGLPPSYVFVSTQRFKVKKIWDLWRILTIDGRPQIAVTLNGVDKILLFTTTSVINGSQVVTFANPQVKTLFDEGWHQIRLLVTEQDVTLYIDDQQIENKPLHPVLGILINGQTQIGKYSGKEETVQFDVQKLRIYCDPEQNNRETACEIPGFNGECLNGPSDVGSTPAPCICPPGKPGLQGPKGDPGLPGNPGYPGQPGQDGKPGYQGIAGTPGVPGSPGIQGARGLPGYKGEPGRDGDKGDRGLPGFPGLHGMPGSKGEMGAKGDKGSPGFYGKKGAKGEKGNAGFPGLPGPAGEPGRHGKDGLMGSPGFKGEAGSPGAPGQDGTRGEPGIPGFPGNRGLMGQKGEIGPPGQQGKKGAPGMPGLMGSNGSPGQPGTPGSKGSKGEPGIQGMPGASGLKGEPGATGSPGEPGYMGLPGIQGKKGDKGNQGEKGIQGQKGENGRQGIPGQQGIQGHHGAKGERGEKGEPGVRGAIGSKGESGVDGLMGPAGPKGQPGDPGPQGPPGLDGKPGREFSEQFIRQVCTDVIRAQLPVLLQSGRIRNCDHCLSQHGSPGIPGPPGPIGPEGPRGLPGLPGRDGVPGLVGVPGRPGVRGLKGLPGRNGEKGSQGFGYPGEQGPPGPPGPEGPPGISKEGPPGDPGLPGKDGDHGKPGIQGQPGPPGICDPSLCFSVIARRDPFRKGPNY [Q96P44] | – | – | – | – | percentage of EdU-negative [1, 4]: 5.32 ± 0.33%; percentage of EdU-negative [1, 5]: 5.995 ± 0.026%; percentage of EdU-negative [2, 4]: 22.4 ± 0.71%; percentage of EdU-negative [2, 5]: 26.57 ± 0.11% |
| MAPWSHPSAQLQPVGGDAVSPALMVLLCLGLSLGPRTHVQAGNLSKATLWAEPGSVISRGNSVTIRCQGTLEAQEYRLVKEGSPEPWDTQNPLEPKNKARFSIPSMTEHHAGRYRCYYYSPAGWSEPSDPLELVVTGFYNKPTLSALPSPVVTSGENVTLQCGSRLRFDRFILTEEGDHKLSWTLDSQLTPSGQFQALFPVGPVTPSHRWMLRCYGSRRHILQVWSEPSDLLEIPVSGAADNLSPSQNKSDSGTASHLQDYAVENLIRMGMAGLILVVLGILIFQDWHSQRSPQAAAGR [A6NI73] | – | – | – | – | percentage of EdU-negative [1, 6]: 6.2 ± 0.49%; percentage of EdU-negative [1, 7]: 11.2 ± 0.64%; percentage of EdU-negative [2, 6]: 24 ± 1.6%; percentage of EdU-negative [2, 7]: 26.1 ± 2.9% |
| MAQKGVLGPGQLGAVAILLYLGLLRSGTGAEGAEAPCGVAPQARITGGSSAVAGQWPWQVSITYEGVHVCGGSLVSEQWVLSAAHCFPSEHHKEAYEVKLGAHQLDSYSEDAKVSTLKDIIPHPSYLQEGSQGDIALLQLSRPITFSRYIRPICLPAANASFPNGLHCTVTGWGHVAPSVSLLTPKPLQQLEVPLISRETCNCLYNIDAKPEEPHFVQEDMVCAGYVEGGKDACQGDSGGPLSCPVEGLWYLTGIVSWGDACGARNRPGVYTLASSYASWIQSKVTELQPRVVPQTQESQPDSNLCGSHLAFSSAPAQGLLRPILFLPLGLALGLLSPWLSEH | 7.44 ± 0.097% | 30.3 ± 4.4% | 24.4 ± 1.8% | 24.6 ± 0.59% | – |
| MARLLWLLRGLTLGTAPRRAVRGQAGGGGPGTGPGLGEAGSLATCELPLAKSEWQKKLTPEQFYVTREKGTEPPFSGIYLNNKEAGMYHCVCCDSPLFSSEKKYCSGTGWPSFSEAHGTSGSDESHTGILRRLDTSLGSARTEVVCKQCEAHLGHVFPDGPGPNGQRFCINSVALKFKPRKH [Q9Y3D2] | 4.73 ± 0.076% | 4.8466 ± 0.0027% | 25.2 ± 0.89% | 25.89 ± 0.18% | – |
| MDNQGVIYSDLNLPPNPKRQQRKPKGNKNSILATEQEITYAELNLQKASQDFQGNDKTYHCKDLPSAPEKLIVGILGIICLILMASVVTIVVIPSTLIQRHNNSSLNTRTQKARHCGHCPEEWITYSNSCYYIGKERRTWEESLLACTSKNSSLLSIDNEEEMKFLSIISPSSWIGVFRNSSHHPWVTMNGLAFKHEIKDSDNAELNCAVLQVNRLKSAQCGSSIIYHCKHKL | 5.08 ± 0.35% | 4.9 ± 0.15% | 23.5 ± 1.5% | 25.6 ± 1.6% | – |
| MKDDFAEEEEVQSFGYKRFGIQEGTQCTKCKNNWALKFSIILLYILCALLTITVAILGYKVVEKMDNVTGGMETSRQTYDDKLTAVESDLKKLGDQTGKKAISTNSELSTFRSDILDLRQQLREITEKTSKNKDTLEKLQASGDALVDRQSQLKETLENNSFLITTVNKTLQAYNGYVTNLQQDTSVLQGNLQNQMYSHNVVIMNLNNLNLTQVQQRNLITNLQRSVDDTSQAIQRIKNDFQNLQQVFLQAKKDTDWLKEKVQSLQTLAANNSALAKANNDTLEDMNSQLNSFTGQMENITTISQANEQNLKDLQDLHKDAENRTAIKFNQLEERFQLFETDIVNIISNISYTAHHLRTLTSNLNEVRTTCTDTLTKHTDDLTSLNNTLANIRLDSVSLRMQQDLMRSRLDTEVANLSVIMEEMKLVDSKHGQLIKNFTILQGPPGPRGPRGDRGSQGPPGPTGNKGQKGEKGEPGPPGPAGERGPIGPAGPPGERGGKGSKGSQGPKGSRGSPGKPGPQGSSGDPGPPGPPGKEGLPGPQGPPGFQGLQGTVGEPGVPGPRGLPGLPGVPGMPGPKGPPGPPGPSGAVVPLALQNEPTPAPEDNGCPPHWKNFTDKCYYFSVEKEIFEDAKLFCEDKSSHLVFINTREEQQWIKKQMVGRESHWIGLTDSERENEWKWLDGTSPDYKNWKAGQPDNWGHGHGPGEDCAGLIYAGQWNDFQCEDVNNFICEKDRETVLSSAL [Q5KU26] | – | – | – | – | percentage of EdU-negative ([1]; protein concentration 0.014 µM): 4.89 ± 0.26%; percentage of EdU-negative ([1]; protein concentration 0.14 µM): 5.83 ± 0.4%; percentage of EdU-negative ([2]; protein concentration 0.014 µM): 24.6 ± 1.5%; percentage of EdU-negative ([2]; protein concentration 0.14 µM): 30.5 ± 2.3% |
| MKLLVLAVLLTVAAADSGISPRAVWQFRKMIKCVIPGSDPFLEYNNYGCYCGLGGSGTPVDELDKCCQTHDNCYDQAKKLDSCKFLLDNPYTHTYSYSCSGSAITCSSKNKECEAFICNCDRNAAICFSKAPYNKAHKNLDTKKYCQS | 5.18 ± 0.11% | 7.86 ± 2.2% | 26 ± 0.9% | 25.4 ± 4.6% | – |
| MKPLLLAVSLGLIAALQAHHLLASDEEIQDVSGTWYLKAMTVDREFPEMNLESVTPMTLTTLEGGNLEAKVTMLISGRCQEVKAVLEKTDEPGKYTADGGKHVAYIIRSHVKDHYIFYCEGELHGKPVRGVKLVGRDPKNNLEALEDFEKAAGARGLSTESILIPRQSETCSPGSD | – | – | – | – | percentage of EdU-negative [1, 8]: 4.86 ± 0.068%; percentage of EdU-negative [1, 9]: 9.01 ± 0.57%; percentage of EdU-negative [2, 8]: 23.1 ± 0.54%; percentage of EdU-negative [2, 9]: 25.8 ± 1.7% |
| MKTCWKIPVFFFVCSFLEPWASAAVKRRPRFPVNSNSNGGNELCPKIRIGQDDLPGFDLISQFQVDKAASRRAIQRVVGSATLQVAYKLGNNVDFRIPTRNLYPSGLPEEYSFLTTFRMTGSTLKKNWNIWQIQDSSGKEQVGIKINGQTQSVVFSYKGLDGSLQTAAFSNLSSLFDSQWHKIMIGVERSSATLFVDCNRIESLPIKPRGPIDIDGFAVLGKLADNPQVSVPFELQWMLIHCDPLRPRRETCHELPARITPSQTTDERGPPGEQGPPGPPGPPGVPGIDGIDGDRGPKGPPGPPGPAGEPGKPGAPGKPGTPGADGLTGPDGSPGSIGSKGQKGEPGVPGSRGFPGRGIPGPPGPPGTAGLPGELGRVGPVGDPGRRGPPGPPGPPGPRGTIGFHDGDPLCPNACPPGRSGYPGLPGMRGHKGAKGEIGEPGRQGHKGEEGDQGELGEVGAQGPPGAQGLRGITGIVGDKGEKGARGLDGEPGPQGLPGAPGDQGQRGPPGEAGPKGDRGAEGARGIPGLPGPKGDTGLPGVDGRDGIPGMPGTKGEPGKPGPPGDAGLQGLPGVPGIPGAKGVAGEKGSTGAPGKPGQMGNSGKPGQQGPPGEVGPRGPQGLPGSRGELGPVGSPGLPGKLGSLGSPGLPGLPGPPGLPGMKGDRGVVGEPGPKGEQGASGEEGEAGERGELGDIGLPGPKGSAGNPGEPGLRGPEGSRGLPGVEGPRGPPGPRGVQGEQGATGLPGVQGPPGRAPTDQHIKQVCMRVIQEHFAEMAASLKRPDSGATGLPGRPGPPGPPGPPGENGFPGQMGIRGLPGIKGPPGALGLRGPKGDLGEKGERGPPGRGPNGLPGAIGLPGDPGPASYGRNGRDGERGPPGVAGIPGVPGPPGPPGLPGFCEPASCTMQAGQRAFNKGPDP | – | – | – | – | percentage of EdU-negative ([1]; protein concentration 0.014 µM): 4.72 ± 0.95%; percentage of EdU-negative ([1]; protein concentration 0.14 µM): 6.48 ± 1.2%; percentage of EdU-negative ([2]; protein concentration 0.014 µM): 27.4 ± 0.72%; percentage of EdU-negative ([2]; protein concentration 0.14 µM): 28.1 ± 2.1% |
| MLNLLLLALPVLASRAYAAPAPGQALQRVGIVGGQEAPRSKWPWQVSLRVRDRYWMHFCGGSLIHPQWVLTAAHCVGPDVKDLAALRVQLREQHLYYQDQLLPVSRIIVHPQFYTAQIGADIALLELEEPVNVSSHVHTVTLPPASETFPPGMPCWVTGWGDVDNDERLPPPFPLKQVKVPIMENHICDAKYHLGAYTGDDVRIVRDDMLCAGNTRRDSCQGDSGGPLVCKVNGTWLQAGVVSWGEGCAQPNRPGIYTRVTYYLDWIHHYVPKKP | 4.99 ± 1.1% | 6.02 ± 0.23% | 23.97 ± 0.13% | 26.4 ± 0.76% | – |
